# About 540 (0.36%) of roughly 150,000 compounds showed an effect of 50% or more. Some of the results follow.
# System: Plasmodium falciparum
# Test: Primary screen in NF54 nanoGlo assay, in single point, at 2uM, 72h; a lower Z score goes with more inhibition
# Assay type: functional, Erythrocyte
# Settings: timepoint 72 hour
SMILES,% Inhibition [%],Z score
COCc1nn(C)cc1C(=O)N1CCCN(Cc2ccc(Cl)cc2)CC1,-9,1.52
O=C1NC2(CCN(Cc3ccncc3)CC2)Nc2cccc(Cl)c21,-8,0.75
Cc1nc2c(C(=O)O)snc2c(=O)n1Cc1ccc(Cl)cc1,-7,0.89
CCc1cncc(C(=O)N2CCCc3ccnc(N(C)C)c32)c1,-6,0.66
Clc1cccc(CNc2cnn(Cc3nnc4n3CCCC4)c2)c1,-5,0.69
COc1ccc(N2CCN(C(=O)[C@H]3CCC[C@H]3NC(=O)c3ccc(OC)nc3)CC2)cc1,-4,0.49
C[C@]1(c2ccc(Cl)c(Cl)c2)NC(=O)N(Cc2coc(-c3ccccc3)n2)C1=O,-18,1.65
COc1cccc([C@H]2CC(O)=Nc3c2ncn3-c2cc(F)ccc2F)c1,27,-3.01
CCn1cc(C(=O)NC[C@H]2CCCN(CC(C)C)C2)nn1,5,-0.57
CCN(CC)c1nc(-c2nnc(-c3ccc(C)cc3)o2)nc2ccccc12,-5,0.84
O=C(Nc1ccccc1Cl)c1ccc(-c2c(-c3ccc(F)cc3)ncn2C2CCCC2)o1,4,-0.6
O=C(CNC(=O)c1ccc(C(F)(F)F)cc1)Nc1cccc(C(=O)NC2CC2)c1,-1,0.14
C[C@H]1CN(c2ccnc(C(=O)NCc3ccccc3)c2)CC(C)(C)O1,-6,1.14
COC[C@H]1CCCN(C(=O)Nc2c(C)cnn2Cc2ccccc2Cl)C1,3,-0.59
COc1ccc2cc([C@@H]3CN(CCc4nnn[nH]4)CCO3)ccc2c1,-10,0.97
Cc1nccn1Cc1nc(C2CCOCC2)nn1C[C@H]1COCCO1,-6,1.01
O=C(NCCCc1ncc[nH]1)[C@@H]1[C@H]2[C@@H]3CC[C@@H](C3)[C@@H]12,0,0.06
COCCN(Cc1cccs1)C(=O)c1cc(C2CC2)nc2c1c(C)nn2C(C)(C)C,2,-0.17
Cn1nc(-c2nnc(-c3ccccc3)o2)c2c1CCN(S(=O)(=O)c1ccc(F)cc1F)C2,-30,2.61
CC(C)COC[C@@H](O)Cn1nnc(-c2ccsc2)n1,-5,0.7
COc1ccccc1-c1nc(S(=O)(=O)c2ccc3c(c2)OCCO3)c(N2CCCCC2)o1,14,-1.86

SMILES,% Inhibition [%],Z score
CC(C)Oc1ccc(C(=O)NCc2cc(-c3cccs3)nn2C)cc1,-1,0.12
Cc1ccc(C)c(OCC(=O)NC2(C(=O)O)CCC2)c1,-10,1.34
Cc1cccc(C)c1NC(=O)CN1CN(c2cccc(F)c2)c2ncccc2S1(=O)=O,-15,1.6
CCn1c(-c2cc(NC(=O)Cc3ccccc3C)[nH]n2)cc2c(OC)cccc21,1,-0.13
N#Cc1ccc(C(=O)NCCCc2nnc3ccccn23)cn1,-18,3.43
NC[C@H]1Cc2cccc(-c3ccc4[nH]ncc4c3)c2O1,-2,0.24
CCN(CC)S(=O)(=O)c1cc(C)c(C)c(NCc2cc3n(n2)CCCC3)c1,-2,0.49
C[C@H]1Cc2ccccc2N1C(=O)CN1CCN(Cc2ccccc2F)CC1,24,-3.05
Cc1ncsc1C(=O)N1CC2CC1CS2(=O)=O (centres undefined),-4,0.82
Cc1ccc2c(=O)n([C@@H](C)c3c(C)nn(C)c3C)cnc2c1C,1,-0.18
CCC(NC(=O)N(C)C(C)CS(C)(=O)=O)c1cccc(Cl)c1 (centres undefined),0,0.01
CC(C)(C)C1CNC(=O)C1C(=O)NCCCn1ncccc1=O (centres undefined),6,-0.95
CCOC(=O)c1cc(NC(=O)C(C)(C)NC(=O)OC(C)(C)C)c(F)cc1C,35,-5.05
O=C(CCc1cccs1)N(Cc1cncs1)Cc1cncs1,-6,1.14
Cc1cnc(OC2CCN([C@@H](C(=O)O)c3ccsc3)CC2)nc1,9,-1.25
CCN1C(=O)c2ccc(Cl)cc2NC12CCC(O)CC2 (centres undefined),1,-0.12
CCN1C(=O)C(=O)N(CC(=O)N2CCN(c3cccc(Cl)c3)CC2)C1=O,-11,1.47
COc1ccc(-c2cc3n(n2)CCC(=O)N3CC(=O)NCCCN2CCOCC2)cc1,-4,0.39
Cc1cc(S(N)(=O)=O)ccc1Cl,-7,1.34
CC1CCN(C(=O)CCc2nc([C@@H]3CCCN3S(C)(=O)=O)no2)CC1,-14,1.61
CC(C)(CNC(=O)NCCC1CCCC1)C(N)=O,-6,0.74

SMILES,% Inhibition [%],Z score
O=C(c1cc2ccccc2s1)N1CCCc2ccccc21,-5,0.98
Cc1ccc(-c2cc(C)c(=O)n(C)c2)o1,3,-0.6
Nc1cnn(-c2cnc3ccccc3n2)c1,10,-1.13
Cc1nsc(C(=O)N2CCN(c3ncccn3)CC2)n1,-15,2.28
COc1cc(CN2CCC(F)(F)CC2)ccc1OC[C@@H](O)CN1CCOCC1,-16,1.49
O=C(c1cnns1)N1CCN(Cc2nnc3n2CCCCC3)CC1,-3,0.27
COCc1noc(CN2CC[C@H](NC(=O)c3ccccc3)[C@@H](O)C2)n1,-9,1.64
Cc1ccc(-n2nc3c(N4CCCC4)nnc(C)c3c2C)cc1,-29,3.39
CN1CCO[C@@H](CNC(=O)c2cccc(NC(=O)c3ccco3)c2)C1,-11,1.41
C#Cc1cccc(NC(=O)N2CC(S(=O)(=O)c3ccccc3F)C2)c1,-12,1.18
O=C(c1ccc2c(c1)OCO2)N1CC(S(=O)(=O)C2CCCCC2)C1,-13,1.7
CCN(CC)S(=O)(=O)c1ccc(O)c(NC(=O)C(=O)c2cnn(C)c2)c1,-6,0.88
CCCOc1cccc(CN(C)[C@H]2CCN(S(C)(=O)=O)C2)c1,2,-0.22
CC1(C2CCN(c3cc(-n4ccnc4)ncn3)CC2)OCCO1,-6,0.87
COc1cccc(NS(=O)(=O)c2ccc(-c3[nH]ncc3C(=O)N3CCCCC3)o2)c1,-16,1.85
O=C(c1cc(-c2ccco2)n[nH]1)N1CC[C@H](c2ncon2)C1,-17,3.14
CC(NC(=O)C(Cc1ccccc1)NS(=O)(=O)c1ccccc1F)c1ccc2c(c1)OCCO2 (centres undefined),4,-0.58
CCOC(=O)c1[nH]c(C2CCN(c3nccs3)CC2)nc1C,-1,0.1
O=C(NCC1COCCO1)NC[C@@H]1Cc2ccccc2CO1 (some centres undefined),-20,2.12
Cc1sc2ccccc2c1CN1C[C@@H]2C(=O)NC[C@]2(C(=O)O)C1,-3,0.58
CCC1(CC)CNC(=O)[C@H]1NC(=O)c1ccnnc1C,7,-0.81

SMILES,% Inhibition [%],Z score
COc1ccc2c(c1)[C@@H](NC(=O)c1cc3n(n1)CCNC3)CC(C)(C)O2,7,-1.02
N#Cc1c2n(c3c(=O)n(Cc4ccccc4Cl)cnc13)CCCC2,-13,2.47
O=S(=O)(Nc1ccc(Cl)cc1)c1cnn(-c2ccc(C(F)(F)F)cn2)c1,-2,0.27
COc1cccc2c1NC(=O)[C@@H]1C[C@@H](N(C)C)CN1C2=O,-17,2.33
COc1ccccc1N1CCN(C(=O)c2cc3ccsc3n2Cc2ccccc2F)CC1,-11,1.52
Cc1cc(C)nc(O[C@H]2CC[C@H](NC(=O)c3cccnc3)CC2)n1,-7,0.85
CCN(Cc1noc(CC(C)C)n1)C(=O)c1cc(C)n2nc(C)cc2n1,-5,0.94
Cc1cc(C2(c3cc(C)c(NC(=O)CN4CCOCC4)c(C)c3)CCCCC2)cc(C)c1NC(=O)CN1CCOCC1,9,-1.14
C[C@@H](c1ccccc1)N(CC(=O)NCC#N)CC1CCC1,-6,0.91
O=C(NCCc1cnccn1)N1C2C=C(c3ccccc3)CC1CC2 (centres undefined),-7,0.83
O=C1C[C@H](c2nc(-c3ccc4[nH]cnc4c3)no2)CN1C1CC1,-12,2.27
CC1(C)C[C@]1(C(=O)N1CCC(c2cc(O)ncn2)CC1)c1ccccc1F,-10,1.03
Cc1ccc(C(N)=O)cc1-c1ccc(C(=O)N(C)[C@H]2CCOC(C)(C)C2)cc1,-9,1.62
Cc1nccn1CCC(=O)NC[C@H](C)Oc1cccnc1,-7,0.93
C=CCO[C@@H]1CCN2C(=O)c3cc(-c4cccc(C(F)(F)F)c4)ccc3NC(=O)[C@H]12,2,-0.32
COCc1nc(C(=O)Nc2nc(-c3cnn(C)c3)cs2)cs1,29,-3.26
Cc1c(C(=O)N(C)CC(C)C)cnn1-c1nccc(-c2ccc3c(c2)OCO3)n1,4,-0.49
CC(C)c1nnc2ccc(NS(=O)(=O)c3ccc4c(c3)CC(=O)N4C)cn12,2,-0.25
Cc1cccc(-n2nc(Cc3ccccc3)n(CC(=O)NC3CC3)c2=O)c1,-11,2.17
